From the antibiotic and cytotoxicity screens of Wong et al. (2023)
This is one part of the list.

System: HSkMC (human skeletal muscle cells)
Experiment: cytotoxicity call (relative viability < 0.9)
Conditions: 10 µM

Row | SMILES | cytotoxicity call
1 | O=C(C[C@H]1C=C[C@@H](NC(=O)CN2CCOCC2)[C@@H](CO)O1)NCCc1ccccc1 | inactive
2 | C[C@@H]1CN([C@H](C)CO)C(=O)c2cccc(NC(=O)C3CCOCC3)c2O[C@@H]1CN(C)S(=O)(=O)c1ccccc1 | inactive
3 | C[C@@H]1CN([C@@H](C)CO)C(=O)c2cc(NC(=O)CCN3CCOCC3)ccc2O[C@@H]1CN(C)S(=O)(=O)c1ccccc1 | inactive
4 | O=C1N[C@H](Cc2c[nH]c3ccccc23)COC(=O)[C@H](Cc2ccc(F)cc2)CC=CC[C@@H]1CC(=O)N(CCO)Cc1ccccc1 | inactive
5 | C[C@H]1CN([C@@H](C)CO)C(=O)c2cccc(NS(=O)(=O)c3ccc(Cl)cc3)c2O[C@@H]1CN(C)Cc1ccc(C(F)(F)F)cc1 | inactive
6 | Cc1ccc(S[C@]2(C(=O)NC(C)C)CC(=O)N(Cc3ccccc3Cl)[C@@H]2c2ccc(CO)cc2)cc1 | inactive
7 | CO[C@H]1CN(C)C(=O)c2cc(NS(=O)(=O)c3cn(C)cn3)ccc2OC[C@@H](C)N(CC2CC2)C[C@@H]1C | inactive
8 | C[C@H]1CN([C@@H](C)CO)C(=O)Cc2cc(NS(=O)(=O)c3cccs3)ccc2O[C@@H]1CN(C)Cc1ccc(Oc2ccccc2)cc1 | inactive
9 | CCOc1nc2cccc(C(=O)OCc3oc(=O)oc3C)c2n1Cc1ccc(-c2ccccc2-c2noc([O-])n2)cc1.[K+] | inactive
10 | C[C@@H]1CCCCO[C@H](CN(C)C(=O)NC2CCCCC2)[C@@H](C)CN([C@H](C)CO)C(=O)c2cc(NC(=O)c3ccccc3)ccc2O1 | inactive
11 | COc1ccc(NC(=O)Nc2ccc3c(c2)C(=O)N([C@@H](C)CO)C[C@H](C)[C@H](CN(C)Cc2ccc4c(c2)OCO4)OCCCC[C@@H](C)O3)cc1 | inactive
12 | C[C@@H]1CCCCO[C@@H](CN(C)C(=O)c2ccccc2)[C@H](C)CN([C@@H](C)CO)C(=O)c2cc(NS(=O)(=O)c3ccccc3)ccc2O1 | inactive
13 | C[C@H](CO)N1C[C@H](C)[C@@H](CN(C)C(=O)c2ccccn2)Oc2cc(C#Cc3ccccc3)ccc2S1(=O)=O | inactive
14 | COc1ccc(NC(=O)N(C)C[C@@H]2OCCCC[C@H](C)Oc3ccc(NS(=O)(=O)c4ccc(OC)cc4)cc3C(=O)N([C@H](C)CO)C[C@@H]2C)cc1 | inactive
15 | Cn1c(=O)cc(N2CCC[C@@H](N)C2)n(Cc2cc(F)ccc2C#N)c1=O | inactive
16 | C[C@@H]1CCCCO[C@H](CN(C)C(=O)Nc2cccc3ccccc23)[C@@H](C)CN([C@H](C)CO)C(=O)c2cc(NC(=O)CCC(F)(F)F)ccc2O1 | inactive
17 | C[C@@H]1CN([C@@H](C)CO)C(=O)Cc2cc(NS(=O)(=O)c3cccs3)ccc2O[C@H]1CN(C)Cc1ccncc1 | inactive
18 | Cc1noc(C)c1NC(=O)N(C)C[C@@H]1Oc2cc(C#CCN(C)C)ccc2S(=O)(=O)N([C@@H](C)CO)C[C@H]1C | inactive
19 | C[C@H](CO)N1C[C@H](C)[C@H](CN(C)Cc2ccc(C(F)(F)F)cc2)Oc2c(NC(=O)C3CCCCC3)cccc2C1=O | inactive
20 | C[C@H](O)C#Cc1ccc2c(c1)O[C@@H](CN(C)C(=O)C1CCCCC1)[C@@H](C)CN([C@H](C)CO)S2(=O)=O | inactive
21 | CC(C)NC(=O)Cn1ccc([N+](=O)[O-])n1 | inactive
22 | CC(C)NC(=O)Nc1cccc2c1O[C@@H](CN(C)Cc1ccc(Oc3ccccc3)cc1)[C@@H](C)CN([C@@H](C)CO)C2=O | inactive
23 | COc1ccc(S(=O)(=O)Nc2ccc3c(c2)C(=O)N([C@H](C)CO)C[C@H](C)[C@H](CN(C)C(=O)CCC(F)(F)F)OCCCC[C@@H](C)O3)cc1 | inactive
24 | C[C@@H]1CCCCO[C@H](CN(C)Cc2ccccc2)[C@@H](C)CN([C@H](C)CO)C(=O)c2cc(NS(=O)(=O)c3ccc(F)cc3)ccc2O1 | inactive
25 | Cc1ccc(S(=O)(=O)Nc2ccc3c(c2)CC(=O)N([C@@H](C)CO)C[C@@H](C)[C@H](CN(C)S(=O)(=O)c2ccc(F)cc2)O3)cc1 | inactive
26 | COc1ccc([Si](C)(C)[C@H]2[C@H](CC(=O)N(CCO)Cc3ccccc3)O[C@@]3(C(=O)N(Cc4ccc(N5CCC5=O)cc4)c4ccccc43)[C@@H]2C)cc1 | inactive
27 | Cc1noc(C)c1S(=O)(=O)Nc1cccc2c1O[C@H](CN(C)C(=O)NC1CCCCC1)[C@H](C)CN([C@H](C)CO)C2=O | inactive
28 | Cc1noc(C)c1S(=O)(=O)Nc1ccc2c(c1)CC(=O)N([C@@H](C)CO)C[C@H](C)[C@H](CN(C)C(=O)NC(C)C)O2 | inactive
29 | COc1ccc(C#Cc2ccc3c(c2)O[C@@H](CN(C)C(=O)c2ccccn2)[C@H](C)CN([C@@H](C)CO)S3(=O)=O)cc1 | inactive
